According to PubChem BioAssay AID651568 (National Center for Advancing Translational Sciences (NCATS), 2012):
Out of some 1,200 compounds screened, about 55 (5%) were called active. Another 15% or so got no clear call; they are omitted. The call rests on the fitted dose curve; in most records, active means well fitted inhibition curve with a large enough effect; inconclusive means small, poorly fitted or top-dose-only effect; inactive means no such curve, though single readings can be large or run the other way. This is one part of the list.

experiment: qHTS Assay to Find Inhibitors of Chronic Active B-Cell Receptor Signaling: Hit Validation in Renilla Reporter Assay; conditions: TMD8 IkB-Renilla luciferase reporter, NF-kB signaling; series mostly up to 57.5 µM; activity change, negative = inhibition: at the top concentration; further: nearly all actives have a fitted effect of over 70% in size
Summary of the method: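 Orthogonal secondary test of primary-screen hits in ABC-DLBCL cells carrying constitutively expressed IkB-Photinus and Renilla luciferase reporters, read by Dual-Glo luminescence; luciferases differ from the primary assay's click beetle enzymes, to exclude assay-specific artifacts.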
On the % scale 0 is the no-effect control and ±100 the full control effect; potency means the concentration at half of the fitted maximal effect.

Row | Compound | activity change, negative = inhibition | Potency
1 | CNc1nc(-c2ccc(OC)cc2)c(-c2ccc(OC)cc2)s1 | inactive: -1% | 
2 | O=C1CC(c2ccccc2)Cc2nc3ncnn3cc21 (stereo not drawn) | inactive: -15.1% | 
3 | O=[N+]([O-])c1cccnc1SCc1c(F)cccc1Cl | inactive: 1.58% | 
4 | Cc1ccc(NC(=O)C(=O)NCC2CCCN2S(=O)(=O)c2cccs2)cc1C (stereo not drawn) | inactive: 3.93% | 
5 | Cc1ccc(NC(=S)NC(=O)c2ccc(F)cc2)cc1S(=O)(=O)Nc1cccc(Cl)c1 | inactive: -68% | 
6 | C=CCn1c(SCC(=O)NCCO)nc2sc(C)c(C)c2c1=O | inactive: 3.04% | 
7 | COc1ccc(/C=N/NC(=O)C(=O)N2CCCCCC2)cc1[N+](=O)[O-] | inactive: -0.149% | 
8 | COc1cc(OC)cc(C(=O)Oc2c(CN3CCOCC3)cc(Cl)c3cccnc23)c1 | inactive: 1.92% | 
9 | CNC(=S)N/N=C(\C)c1ccc(Cl)s1 | inactive: 0.177% | 
10 | CC(=O)c1ccc2c(c1)CC(C)C(=O)N2C (stereo not drawn) | inactive: 5.69% | 
11 | Oc1cccc(/C=N/Nc2ccc(Cl)nn2)c1O | inactive: -24.8% | 
12 | CN(CC(=O)O/N=C(\N)c1ccccn1)S(=O)(=O)c1cc(Cl)ccc1Cl | inactive: 3.71% | 
13 | CCN(C(=O)c1cnc(NC(C)C)cc1C(F)(F)F)c1ccc(Cl)cc1Cl | inactive: -1.24% | 
14 | COc1ccc(COC(=O)c2cc([N+](=O)[O-])ccc2N2CCOCC2)cc1F | inactive: -16.2% | 
15 | CC1(CCc2ccc(O)cc2)NC(=O)NC1=O (stereo not drawn) | inactive: -1.86% | 
16 | O=c1cc(-c2ccc(F)cc2)[nH][nH]1 | inactive: -13.3% | 
17 | CCN(CC)S(=O)(=O)c1ccc(N2CCOCC2)c(NC(=O)c2[nH]c(C)c(C(C)=O)c2C)c1 | inactive: 11% | 
18 | CCN(c1cccc(C)c1)S(=O)(=O)c1ccc(-c2cc(C)no2)s1 | inactive: 12% | 
19 | COc1ccc(OC)c(C2C3=C(COC3=O)Nc3cc4c(cc32)OCO4)c1 (stereo not drawn) | inactive: -14.2% | 
20 | COc1cc(-c2noc(C)c2C#Cc2ccsc2)cc(OC)c1OC | inactive: -23.8% | 
21 | COc1ccccc1C(=O)Nc1ccccc1SC(=O)c1ccccc1OC |  | active: 23.9 µM
22 | CCOC(=O)c1ccc(NC(=O)Nc2ccon2)cc1 | inactive: -17.6% | 

Row | Compound | activity change, negative = inhibition | Potency
23 | COc1ccc(NC(=S)N=Nc2c(O)[nH]c3ccccc23)cc1 | inactive: -16.6% | 
24 | COCCNC(=S)N/N=C(\C)c1ccccc1F | inactive: -0.357% | 
25 | CCC1CCCCN1C(=S)NC(=O)c1cccs1 (stereo not drawn) | inactive: -1.48% | 
26 | COc1cc2c(cc1OC)-c1cc(NC3CCCCCC3)nc(=O)n1CC2 | inactive: -5.21% | 
27 | COc1ccc(/C=N/NC(=O)CCn2cnc(-c3ccccc3)c2-c2ccccc2)cc1 |  | active: 26.9 µM
28 | COc1ccc2c(c1)C(C)=CC(C)(C)N2S(=O)(=O)c1ccc(C)cc1 | inactive: -1.01% | 
29 | Cc1ccc2c(c1)C(=O)C(=O)N2CCOc1ccccc1 | inactive: 2% | 
30 | CCn1c2ccccc2c2cc(NC(=O)c3cc(OC)c(OC)c(OC)c3)ccc21 | inactive: -23.2% | 
31 | COc1ccc(/C=N/NC(=O)c2[nH]c3ccc(Cl)cc3c2-c2ccccc2)c(C(=O)O)c1OC | inactive: -14.4% | 
32 | COc1ccc(NC(=S)NC(=O)/C=C/c2ccco2)cc1 | inactive: 0.558% | 
33 | CCN(CC)c1ccc(/C=N/NC(=S)NC)c(O)c1 | inactive: -3.72% | 
34 | CCOc1ccccc1C1CC(=O)Nc2cc3c(cc21)OCCO3 (stereo not drawn) | inactive: -25.9% | 
35 | Cc1onc(-c2ccccc2)c1C(=O)Nc1cc(C(F)(F)F)ccc1N1CCOCC1 | inactive: -17.3% | 
36 | CCOC(=O)COc1cccc2c(=O)n(CC(=O)NCc3ccc(F)cc3)ccc12 | inactive: -14% | 
37 | Cc1ccsc1/C=C/C1=NCCCN1C | inactive: -15.3% | 
38 | O=C(CSc1cc(Cl)ccc1Cl)Nc1ccc(N2CCOCC2)cc1 | inactive: 9.12% | 
39 | CCCCC[C@H](O)/C=C/[C@@H]1[C@@H](C/C=C\CCCC(=O)OC)[C@@H](O)C[C@H]1O | inactive: -17.2% | 
40 | COc1cc(/C=C2\OC(=O)c3c(OC)cccc32)ccc1O | inactive: 1.72% | 
41 | Cc1noc(C)c1COc1cccc(C(=O)OCC(=O)N2CC(=O)Nc3ccccc32)c1 | inactive: -1.58% | 
42 | Nc1nc(SCc2nc(-c3ccccc3)no2)[nH]c(=O)c1-c1ccccc1 | inactive: -4.57% | 
43 | CCOC(=O)CSC1=C(C#N)C(c2ccc(C)s2)CC(=O)N1 (stereo not drawn) | inactive: -26% | 
44 | N#Cc1ccc(-c2cccs2)nc1SCc1cccnc1 | inactive: -1.59% | 

Row | Compound | activity change, negative = inhibition | Potency
45 | OC[C@H]1O[C@@H](n2cnc3c(Nc4ccccc4)ncnc32)[C@H](O)[C@@H]1O | inactive: 0.625% | 
46 | CC1CCC(n2c(=S)[nH]c3ccccc3c2=O)CC1 (stereo not drawn) | inactive: 4.25% | 
47 | COCc1ccc(O)c2ncccc12 | inactive: -11% | 
48 | COc1cccc(CN2c3ccc(Br)cc3C(=O)CS2(=O)=O)c1 | inactive: -1.35% | 
49 | O=C(Nc1cccc2ccccc12)c1cc2c(cc1Br)OCO2 | inactive: 2.59% | 
50 | CC(=O)N1c2ccc(C)cc2C(c2ccccc2)CC1C (stereo not drawn) | inactive: -6.66% | 
51 | COc1cc(/C=C\C(=O)OCn2nnc3ccccc3c2=O)cc(OC)c1OC | inactive: 3.59% | 
52 | NCCNC(=O)Cc1cccc(NC(=O)Cc2ccc(Nc3ncnc4c3ncn4[C@@H]3O[C@H](CO)[C@@H](O)[C@H]3O)cc2)c1 | inactive: -1.93% | 
53 | CCC1=Nc2cc(C(=O)NCCCOC)ccc2Sc2ccccc21 | inactive: 0.82% | 
54 | Cc1ccc(S(=O)(=O)N(C)C[C@@H]2Oc3ccc(NC(=O)CCC(F)(F)F)cc3CC(=O)N([C@@H](C)CO)C[C@@H]2C)cc1 | inactive: 3.29% | 
55 | CCOC(=O)c1cnc(Nc2nc3ccccc3o2)nc1CSC(=S)N1CCCCC1 | inactive: -1.89% | 
56 | COc1ccc(CCn2c(N)cc(=O)[nH]c2=S)cc1OC | inactive: 2.32% | 
57 | Cc1ccc(C(=O)c2cc([N+](=O)[O-])ccc2N2CCOCC2)c(C)c1 | inactive: -2.34% | 
58 | COCCCNC(=O)C[C@H]1C[C@H](C(=O)N2CCCCC2)[C@@]2(C)c3[nH]c4ccc(Cl)cc4c3CCN2C1=O | inactive: 5.47% | 
59 | CCOc1ccccc1NC(=O)N1CCC(N2CCN(Cc3ccccc3)C(=O)C2=O)CC1 | inactive: -4.14% | 
60 | COc1ccc(Nc2cc(C)nc(-n3nc(C)cc3C)n2)cc1 | inactive: -15.2% | 
61 | CCCOc1ccc(Cn2ccnc2)cc1[N+](=O)[O-] | inactive: 1.02% | 
62 | S=C(Nc1ccccc1)Nc1nccs1 | inactive: 0.806% | 
63 | CCc1c(C)c(C#N)c2nc3ccccc3n2c1Cl |  | active: 0.953 µM
64 | COc1ccc(-c2nn(-c3ccccc3)cc2C(=O)NC(=S)NNC(=O)c2ccncc2)cc1 | inactive: 3.95% | 
65 | O=C(/C=C/c1ccccc1)c1ccc(NC2=NCCCS2)cc1 |  | active: 21.3 µM
66 | CC(=O)Nc1ccc(Oc2cc(C#N)c(C#N)cc2N2CCOCC2)cc1 | inactive: 1.6% | 

Row | Compound | activity change, negative = inhibition | Potency
67 | COc1ccc(-c2[nH]ncc2/C=C(\C#N)C(=O)NC2CC2)cc1 | inactive: -9.08% | 
68 | COc1cccc(Nc2sc(C(=O)c3ccc(F)cc3)c(N)c2C(=O)NCc2ccc(C)cc2)c1 | inactive: -15.8% | 
69 | C=CCOc1c(Cl)cc(C(=S)N2CCCC2)cc1OCC | inactive: 14% | 
70 | COc1cc(/C=C/c2ccc3cccc(O)c3n2)cc(Br)c1OC | inactive: -19.6% | 
71 | Cc1ccc(C(=O)Nc2nc(C)c(C(=O)Nc3ccc4c(c3)CCC4)s2)cc1 | inactive: -1.48% | 
72 | O=C(CSc1cccc[n+]1[O-])c1ccc(-c2ccccc2)cc1 | inactive: -2.81% | 
73 | Cc1ccc(C#N)c(SCc2ccccc2F)n1 | inactive: 9.28% | 
74 | CCC1=Nc2cc(C(=O)NCc3ccco3)ccc2Sc2ccccc21 | inactive: 1.17% | 
75 | COc1ccc(N2C(=O)CS/C2=N\C(=S)Nc2ccccc2)cc1 | inactive: 9.1% | 
76 | C=CCn1c(O)c(N=NC(=S)Nc2ccccc2C)c2cc(S(=O)(=O)N3CCOCC3)ccc21 | inactive: -8.41% | 
77 | COc1cc(C(=O)Nc2nc(C)c(Cc3ccc4c(c3)OCO4)s2)cc(OC)c1OC | inactive: -7.31% | 
78 | CCc1ccc(/C=N/NC(=O)c2cc(-c3ccncc3)nc3ccccc23)s1 | inactive: -16.3% | 
79 | COc1ccc(CNC(=O)COc2ccc(C(=O)c3ccc(F)cc3)cc2)cc1 | inactive: -1.12% | 
80 | C=CCNC(=S)N/N=C/c1ccc(C)s1 | inactive: -0.875% | 
81 | Cc1ccc(/C=N/NC(=O)c2n[nH]c3c2CCCC3)cc1 | inactive: -10.8% | 
82 | COc1ccc(OC)c(C2CC(=O)Nc3n[nH]c(-c4ccccc4)c32)c1 (stereo not drawn) | inactive: 0.477% | 
83 | COc1ccc2c(c1)C(C)=CC(C)(C)N2S(=O)(=O)c1ccc(NC(C)=O)cc1 | inactive: 1.54% | 
84 | CCOC(=O)C1CCN(C(=O)CSc2cc(=O)n(CC)c3ccccc23)CC1 | inactive: 4.83% | 
85 | Oc1ccc(Nc2nc(-c3cccnc3)cs2)cc1 | inactive: -8.48% | 
86 | COc1ccccc1N1CCN(Cc2ccc(O)c3ncccc23)CC1 | inactive: -19.9% | 
87 | COc1ccccc1-c1noc(CSc2nc(N)cc(=O)[nH]2)n1 | inactive: -1.85% | 
88 | Cc1nc2ccc(S(=O)(=O)Nc3cccc(-c4nc5cccnc5s4)c3)cc2s1 | inactive: 44.4% | 

Row | Compound | activity change, negative = inhibition | Potency
89 | COc1cc(C(=O)N/N=C/c2ccsc2C)cc(OC)c1OC | inactive: -11.3% | 
90 | COc1cc(/C=N/NC(=S)Nc2cccnc2)cc(OC)c1OC | inactive: 1.2% | 
91 | CC(O)c1cccc(-c2ccc(CN3C[C@]4(CO)O[C@@H](CO)C[C@@H]4S3(=O)=O)cc2)c1 (stereo partly drawn) | inactive: 0.336% | 
92 | CCOc1ccc(S(=O)(=O)N2c3ccccc3CC2C)cc1 (stereo not drawn) | inactive: 1.08% | 
93 | COc1ccc(/C(C)=N/Nc2ccc(C(=O)O)cc2)cc1OC | inactive: 7.67% | 
94 | CCc1ccc(S(=O)(=O)Nc2ccc(-c3ccc4nnc(C)n4n3)cc2)s1 | inactive: 37.8% | 
95 | CC1=NN(C(N)=S)C(=O)C1N=Nc1cccc(C)c1 (stereo not drawn) | inactive: -13.2% | 
96 | COc1ccc(C2=NOC(C(=O)NCc3ccc(F)cc3)C2)cc1 (stereo not drawn) | inactive: -6.43% | 
97 | CCOc1cc(/C=N/O)ccc1OCc1ccccc1F | inactive: 1.23% | 
98 | COc1ccc(/C=C/C(=O)c2cc(F)ccc2OC(=O)c2ccccc2C)cc1OC |  | active: 13.5 µM
99 | CCOC(=O)N1CCN(S(=O)(=O)c2ccc(C(=O)Nc3ccc(F)cc3F)cc2)CC1 | inactive: -5.11% | 
100 | COc1ccc(-c2cnnn2-c2ccc(N)cc2)cc1OC | inactive: 1.69% | 
101 | COc1cc(OC)c(OC)cc1/C=C/C(=O)c1ccc(NS(=O)(=O)c2ccc(C)cc2)cc1 | inactive: -16.9% | 
102 | O=C(Oc1ccc(Cl)c2cccnc12)C12CC3CC(CC(C3)C1)C2 | inactive: -1.45% | 
103 | COc1ccc(C=O)cc1OS(=O)(=O)c1ccc(NC(C)=O)cc1 | inactive: 3.37% | 
104 | CCCSc1nc(=O)n2cccc(C)c2n1 | inactive: -10.4% | 
105 | N#CC1=C2SCC(O)(c3ccccc3)N2C(=O)CC1c1ccccc1 (stereo not drawn) | inactive: -28.9% | 
106 | COc1ccc(NC(=O)C2CCCN2S(=O)(=O)c2cccc3cccnc23)cc1OC (stereo not drawn) | inactive: 2.24% | 
107 | CCOC(=O)C(C)/C(C)=N/NC(N)=S (stereo not drawn) | inactive: -2.05% | 
108 | CCN(C(=O)COC(=O)c1cc([N+](=O)[O-])ccc1N1CCOCC1)c1ccccc1 | inactive: -5.41% | 
